Some of the results follow. At the low end of the ranking the order means little.
target: SIX1 homeodomain (reference allele) (UniProt Q15475); assay: universal protein binding microarray; conditions: Universal all-10-mer PBM (8x60K, AMADID 030236), 300 nM GST-tagged protein, Alexa Fluor 488 anti-GST; buffer, salt, pH and temperature not stated; high values mean tight binding; most listed sequences are background and not binding sites; double strand, one strand shown

Sequence | binding signal [E-score]
CTTACCAA | 0.0209
AACGGCAG | -0.136
CAAGACTC | -0.147
GTTACAAC | -0.111
AGTTGCAA | -0.156
CACTAGAG | -0.146
CATAACGG | -0.127
TCAGTAGA | 0.0265
CCTCTATA | 0.0311
GGACAATA | 0.0395
GTCTTGTA | -0.0499
GATCTACA | 0.194
CCAGAAAG | -0.127
GCCCTCGC | -0.0482
CGGAGTTA | 0.00598
AGCCAAGG | -0.117
GTCAGCAA | -0.254
CACGAAAA | -0.186
TGGATACA | 0.351
CTGGACGA | -0.0365
CTGGAAAA | -0.1
CCCCTGCC | -0.115
ACAGAGCT | -0.156
GCGTCAGA | -0.075
ATAGGACC | -0.0117

Sequence | binding signal [E-score]
CAGTAACA | -0.186
AAATAACG | -0.0842
ACACAACA | -0.046
ACAAACGA | 0.012
AGCGGTCG | -0.171
CAGAAAAG | -0.141
GAACCAAA | -0.148
GATGAAAC | 0.0818
TCTAGCCA | 0.0612
CTGGAACA | -0.056
GATTAGCA | -0.214
AGCAGGGA | -0.169
CGTTAGTA | 0.194
ATGGCTAC | -0.165
AGTAACAT | -0.122
CAGTCAAA | -0.148
AAACACAT | -0.117
AGATGGCA | -0.00818
CGCAATTC | -0.114
CACTAGTA | 0.078
ACATTAGC | -0.144
AATAACTG | -0.103
AATGAGGA | -0.176
ACTGGCCT | 0.139
CCTGCTTA | 0.0271

Sequence | binding signal [E-score]
ATAGAGCA | -0.0939
CTAAGCGC | -0.0919
GACGGCCA | -0.109
ATCAGCAT | 0.208
CAGTGCCA | -0.0607
CACGGGTA | 0.238
AAACCTTG | 0.00133
AGCTCACA | 0.101
AGAGAAAA | -0.215
CTAGCCGA | 0.146
CCTGGAGA | -0.11
TCATTACA | 0.0188
GAAGAGTA | 0.0559
ATGGTGAC | -0.09
TAGCTCCA | -0.0487
AGATCGGG | 0.294
ACTCGACC | -0.0247
CGGCGCTA | -0.176
GGGGAGTA | 0.251
CCCGCAGA | -0.121
CAGAATGA | -0.0849
AAAGGTAA | -0.197
CCGACCGG | 0.133
GCGTAACC | -0.224
CTCTAAAA | -0.163

Sequence | binding signal [E-score]
CGCAGTAC | -0.109
GCCGGGCC | -0.166
ATGAGCAG | -0.0456
CTACCGTC | -0.252
TCGCTCCA | -0.076
CGTGCAAC | -0.0892
TACATAGA | 0.0801
GCACCTGC | -0.17
ATGTAAGG | -0.147
TTAAGCAA | -0.15
CATGATGG | -0.139
ACTGTAGG | -0.0417
GGTCCAAA | -0.297
TCCGCCCA | 0.0461
ATATGTTA | 0.12
ACCGTATA | 0.278
GAGCCAAC | -0.268
CCCAAGTA | -0.0046
AGATGCAT | -0.0317
GCCGAGAA | -0.194
AGCTTCCC | -0.0879
CCACGTTC | -0.215
ACCCCTGG | 0.193
CTCCCAAA | -0.213
GCACCGCA | -0.028

Sequence | binding signal [E-score]
GGCAGCCA | -0.186
CTTACATC | 0.00378
AACTATGT | -0.255
GGTCACAC | 0.00178
CTTGAACA | -0.141
ACTGGTAC | -0.0304
AACGGTAA | -0.122
CGTGAACG | -0.174
GCCAGCAC | -0.19
AATTTGCT | -0.402
GTAAAGCA | -0.143
CTGAGGGC | -0.355
CTGAACTA | -0.0976
CGAACAAC | -0.109
AGCTCAAG | -0.179
TGCTTCCA | -0.283
CGACCCCC | 0.055
ACTGTCGC | -0.207
CATTAATC | 0.172
AAGGACAT | 0.0427
CGGTCTAC | -0.00532
CGTGCGAC | -0.0591
GAGTTGGA | -0.0493
ATTCCTCC | 0.0737
CGTCATGA | 0.136

Sequence | binding signal [E-score]
ACCCTCGG | 0.0367
TTCAAAAA | -0.115
AACTATCA | 0.126
AGTCGAAT | -0.105
CTGCCTTC | -0.22
CCCAACGG | -0.124
CGGAGAGA | 0.0698
GAGTATAC | 0.262
ACGGCTAG | -0.0762
CCCTGCGG | 0.154
GTAAGAGA | -0.0676
GGCTGTAA | -0.116
AGAAGCCT | 0.0392
GTGGTAAC | -0.00979
ACCGTTGG | -0.0509
AATCCGAC | 0.189
AAACTGGT | 0.0866
AATCCACA | 0.104
ATTTGGCA | -0.17
GAGTCCAC | -0.102
GACTAACA | -0.222
CTCCTTTA | -0.162
GATAGCAC | 0.236
ACAAGGTC | -0.115
ACCCATAG | 0.0323

Sequence | binding signal [E-score]
CACTCTGC | -0.0396
GATTTTTA | -0.0609
AGTAATAC | 0.255
AGCGCAAG | -0.12
AGACATAG | -0.0344
AAATCAAA | -0.172
ACCGTTAG | -0.0683
CGTCCGAG | -0.146
TAATGACA | 0.0663
CAGTGCGG | -0.143
CTTAGATC | 0.158
ACATCTAC | 0.132
ATATCTGC | 0.346
GAGGCTGA | -0.0454
ATGCAACC | -0.0231
CACACCCC | 0.26
CCGCTTAC | -0.109
CATTTGAA | -0.136
CTTATATC | 0.292
CATATTTA | 0.125
CCCTGGTA | 0.114
ATCCGGTA | 0.318
